According to the supplement of paper PMC6135742:
Structures can show the parent of a compound that is named as a salt. ± gives the standard deviation of the averaged measurements. The full ranking holds about 2,600 compounds; the median of “MBP+ mature oligodendrocyte number relative to DMSO vehicle control” is about -0.34, and the highest 2% start at about 13. The list shows a part of the results.

System: jimpy (Plp1 jimpy) mouse iPSC-derived oligodendrocyte progenitor cells
Assay: MBP+ mature oligodendrocyte number relative to DMSO vehicle control (SDs above negative control mean); higher = more surviving jimpy oligodendrocytes (rescue)
Conditions: 10 µM; 3 days
Procedure: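 Primary phenotypic screen of >3,000 bioactive compounds (Selleck L1700 and Sigma LO1280 libraries) at a single dose of 10 µM. Compounds were added to jimpy (Plp1 mutant) mouse iPSC-derived OPCs at the start of thyroid hormone-induced oligodendrocyte differentiation, one well per compound in 384-well plates. After 3 days cells were stained for MBP, Sox10 and DAPI and imaged with an Operetta system. MBP+ oligodendrocyte number and total cell number were expressed as the number of SDs above the mean of the DMSO negative control on the same plate (n=16 control wells per plate). Hits were defined as >=4 SD for oligodendrocytes and >=2 SD for total cells.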

| Structure (SMILES) | MBP+ mature oligodendrocyte number |
| --- | --- |
| COc1ccc(-c2nc3cc(C4=NNC(=O)CC4C)ccc3[nH]2)cc1 (stereo unspecified) [Pimobendan] | 10.6 |
| NCC(=O)Nc1ccc(-n2nc(C(F)(F)F)cc2-c2ccc3c(ccc4ccccc43)c2)cc1 | < -6.7 |
| COc1ccc(-c2cnc3c(-c4cccc5ncccc45)cnn3c2)cc1 | -5 |
| NS(=O)(=O)c1cc2c(cc1Cl)N=CNS2(=O)=O [Chlorothiazide] | 1.14 ± 0.11 |
| CNS(=O)(=O)Cc1ccc2[nH]cc(CCN(C)C)c2c1 [Sumatriptan Succinate] | 0.284 |
| O=c1c(O)c(-c2ccc(O)c(O)c2)oc2cc(O)ccc12 [Fisetin] | -1.95 |
| O=C(COc1ccc(Cl)cc1)NC1CCC(NC(=O)COc2ccc(Cl)cc2)CC1 (stereo unspecified) | 3.27 |
| COc1cc2ncnc(Oc3cccc(NC(=O)Nc4cc(C(C)(C)C(F)(F)F)on4)c3)c2cc1OC | 6.63 |
| CN[C@H](CC(C)C)C(=O)N[C@H]1C(=O)N[C@@H](CC(N)=O)C(=O)N[C@H]2C(=O)N[C@H]3C(=O)N[C@H](C(=O)N[C@H](C(=O)O)c4cc(O)cc(O)c4-c4cc3ccc4O)[C@H](O)c3ccc(c(Cl)c3)Oc3cc2cc(c3O[C@@H]2O[C@H](CO)[C@@H](O)[C@H](O)[C@H]2O[C@H]2C[C@](C)(N)[C@H](O)[C@H](C)O2)Oc2ccc(cc2Cl)[C@H]1O [Vancomycin hydrochloride from Streptomyces orientalis] | 0.0744 |
| NC(=O)c1ncn([C@@H]2O[C@H](CO)[C@@H](O)[C@H]2O)n1 [Ribavirin] | 0.766 ± 1.4 |
| CCOC(=O)[C@H](CCc1ccccc1)N[C@@H](C)C(=O)N1[C@H](C(=O)O)C[C@@H]2CCC[C@@H]21 [Ramipril] | 0.883 |
| CNC(=O)c1ccc(-c2cnc3ncc(Cc4ccc5ncccc5c4)n3n2)cc1F | -5.21 |
| Cc1ccc(S(=O)(=O)n2c(N)nc3ccccc32)cc1 [ML130 (Nodinitib-1)] | -0.213 |
| Cn1c(=O)c2[nH]c(C3CCCC3)nc2n(C)c1=O [8-Cyclopentyl-1,3-dimethylxanthine] | 0.607 |
| CC(C)COCC(CN(Cc1ccccc1)c1ccccc1)N1CCCC1 (stereo unspecified) [Bepridil hydrochloride] | -0.000818 |
| O=C(O)c1cc(=O)c2ccccc2o1 [Chromocarb] | 2.52 |
| NS(=O)(=O)c1cc(C(=O)O)c(NCc2ccco2)cc1Cl [Furosemide] | 1.12 ± 0.43 |
| NC(=S)c1ccc[n+]([C@@H]2O[C@@H](COP(=O)([O-])OP(=O)(O)OC[C@H]3O[C@@H](n4cnc5c(N)ncnc54)C(OP(=O)(O)O)[C@H]3O)C(O)C2O)c1 (stereo partly specified) [Thio-NADP sodium] | -0.461 |
| CCOc1cc([C@@H](CS(C)(=O)=O)N2C(=O)c3cccc(NC(C)=O)c3C2=O)ccc1OC | 1.77 |
| Cc1cc(C2CCCCC2)n(O)c(=O)c1 [Ciclopirox ethanolamine] | -5.93 |
| Cc1cc(C2CCCCC2)n(O)c(=O)c1 [Ciclopirox] | -4.7 |
| CC1=C(C(=O)OC(C)C)C(c2cccc([N+](=O)[O-])c2)C(C(=O)OC2CN(C(c3ccccc3)c3ccccc3)C2)=C(N)N1 (stereo unspecified) [Azelnidipine] | < -6.01 |
| COc1cc(C(=O)NS(=O)(=O)c2ccccc2C)ccc1Cc1cn(C)c2ccc(NC(=O)OC3CCCC3)cc12 [Zafirlukast] | 2.23 |
| CCc1cncnc1N1CCN(Cc2nc3ccc(C(F)(F)F)cc3[nH]2)CC1 | 3.81 |
| COc1cccc(OC)c1OCCNCC1COc2ccccc2O1 (stereo unspecified) [WB-4101 hydrochloride] | 5.89 |
| Nc1ccccc1NC(=O)c1ccc(CNC(=O)OCc2cccnc2)cc1 [Entinostat (MS-275)] | < -6.7 |

| Structure (SMILES) | MBP+ mature oligodendrocyte number |
| --- | --- |
| O=C1NCN(c2ccccc2)C12CCN(CCCC(c1ccc(F)cc1)c1ccc(F)cc1)CC2 [Fluspirilene] | -4.41 |
| CCCCOc1c(C(=O)c2c(F)cc(C)cc2F)c[nH]c2nncc1-2 | -3.08 |
| CN(C)C(=O)COC(=O)Cc1ccc(OC(=O)c2ccc(NC(=N)N)cc2)cc1 [Camostat Mesilate] | 1.93 |
| NC(N)=N/N=C/c1ccccc1Cl [Sephin-1] | 1.29 |
| N=C(N)NC(=O)c1nc(Cl)c(N)nc1N [Amiloride HCl] | 0.703 |
| N=C(N)NC(=O)c1nc(Cl)c(N)nc1N [Amiloride hydrochloride] | -0.708 |
| CC(C)NCC(O)c1ccc(NS(C)(=O)=O)cc1 (racemic) [Sotalol] | -0.78 |
| CC(C)NCC(O)c1ccc(NS(C)(=O)=O)cc1 (racemic) [(±)-Sotalol hydrochloride] | -0.0327 |
| O=[N+]([O-])c1ccc2c(c1)S(=O)(=O)C=C2 [Stattic] | -5.1 ± 1.8 |
| CC[C@H]1OC(=O)[C@H](C)[C@@H](O[C@H]2C[C@@](C)(OC)[C@@H](O)[C@H](C)O2)[C@H](C)[C@@H](O[C@@H]2O[C@H](C)C[C@H](N(C)C)[C@H]2O)[C@](C)(OC)C[C@@H](C)C(=O)[C@H](C)[C@@H](O)[C@]1(C)O [Clarithromycin] | -1.12 |
| Nc1ccc(-c2ccc3ccccc3n2)cc1 [BF-170 hydrochloride] | 0.146 |
| CC(=O)SCC[N+](C)(C)C [Acetylthiocholine chloride] | -0.394 |
| NC(=O)Cc1cccc(C(=O)c2ccccc2)c1N [Nepafenac] | 3.6 |
| C[C@H]1COC2=C1C(=O)C(=O)c1c2ccc2c1CCCC2(C)C [Cryptotanshinone] | 0.787 |
| CN(C)CC[C@H](CSc1ccccc1)Nc1ccc(S(=O)(=O)NC(=O)c2ccc(N3CCN(Cc4ccccc4-c4ccc(Cl)cc4)CC3)cc2)cc1[N+](=O)[O-] | -6.52 |
| O=C(Nc1nc2ccccc2n1CCN1CCOCC1)c1cccc([N+](=O)[O-])c1 [IRAK-1/4 Inhibitor I] | -0.0327 |
| CCCCC1=NC2(CCCC2)C(=O)N1Cc1ccc(-c2ccccc2-c2nnn[nH]2)cc1 [Irbesartan] | 1.42 |
| C=C1C[C@@]23CC[C@H]4[C@@](C)(CCC[C@@]4(C)C(=O)O[C@@H]4O[C@H](CO)[C@@H](O)[C@H](O)[C@H]4O)[C@@H]2CC[C@]1(O[C@@H]1O[C@H](CO)[C@@H](O)[C@H](O)[C@H]1O[C@@H]1O[C@H](CO)[C@@H](O)[C@H](O)[C@H]1O)C3 [Stevioside] | -0.715 |
| CN(C)c1cc2c(Nc3ccc4c(cnn4Cc4ccccc4)c3)ncnc2cn1 | -3.58 |
| COc1ccc([C@H]2CNC(=O)C2)cc1OC1CCCC1 [S- (+)-Rolipram] | 0.395 |
| NC(=O)C(=O)O [Sodium Oxamate] | -1.23 |
| COc1cc(Cc2cnc(N)nc2N)cc(OC)c1OC [Trimethoprim] | 1.04 ± 0.36 |
| COc1cc2c(cc1OC)CN(CCc1ccc(NC(=O)c3cc(OC)c(OC)cc3NC(=O)c3cnc4ccccc4c3)cc1)CC2 [Tariquidar] | -3.56 |
| COc1ccc(S(=O)(=O)Nc2nc(-c3cccc([N+](=O)[O-])c3)cs2)cc1OC | -0.598 |
| C[C@@H](Oc1cc(-n2cnc3ccc(CN4CCN(C)CC4)cc32)sc1C(N)=O)c1ccccc1C(F)(F)F | < -4.81 |
| CNCC[C@H](Oc1cccc2ccccc12)c1cccs1 [Duloxetine HCl] | < -5.15 |

| Structure (SMILES) | MBP+ mature oligodendrocyte number |
| --- | --- |
| CC1(COc2ccc3c(c2)ncn3-c2ccc3cccc(N4CCC(N)CC4)c3n2)COC1 | < -6.01 |
| N#CC(=C(/N)Sc1ccccc1N)/C(C#N)=C(/N)Sc1ccccc1N | -1.85 |
| NS(=O)(=O)c1cccc2c1c([N+](=O)[O-])cc1nc(O)c(O)nc12 [NBQX disodium] | -0.911 |
| NC(N)=NCc1cccc(I)c1 [m-Iodobenzylguanidine hemisulfate] | 16.6 |
| Cc1cccc(C)c1NC(=O)C1CCCCN1C (stereo unspecified) [Mepivacaine HCl] | 3.04 |
| CCc1nc(-c2cccc(C)c2)c(-c2ccnc(NC(=O)c3ccccc3)c2)s1 | -2.44 |
| COc1cc(/C=C/C(=O)N2CCC=CC2=O)cc(OC)c1OC [Piperlongumine] | < -3.97 |
| N#Cc1ccc2[nH]cc(CCCCN3CCN(c4ccc5oc(C(N)=O)cc5c4)CC3)c2c1 [Vilazodone HCl] | -0.269 |
| CN1C(C(=O)Nc2ccccn2)=C(O)c2sccc2S1(=O)=O [Tenoxicam] | -0.164 |
| Cc1ncc([N+](=O)[O-])n1CC(O)CCl (stereo unspecified) [Ornidazole] | 2.41 |
| N=C(N)N [Guanidine HCl] | 3.87 |
| O=C1CCC(N2C(=O)c3ccccc3C2=O)C(=O)N1 (racemic) [(±)-Thalidomide] | 0.00298 |
| O=C1CCC(N2C(=O)c3ccccc3C2=O)C(=O)N1 (racemic) [Thalidomide] | 2.47 |
| CNC(=O)[C@H]1O[C@@H](n2cnc3c(NCc4cccc(I)c4)ncnc32)[C@H](O)[C@@H]1O | 0.0294 |
| C=C[C@H]1CN2CC[C@H]1C[C@@H]2[C@@H](O)c1ccnc2ccc(OC)cc12 [Quinidine sulfate] | -0.747 |
| Cn1c(=O)c2[nH]cnc2n(C)c1=O [Aminophylline] | -2.18 |
| Cn1c(=O)c2[nH]cnc2n(C)c1=O [Aminophylline ethylenediamine] | -0.511 |
| CS(=O)(=O)c1ccc(C2=C(c3ccccc3)C(=O)OC2)cc1 [Rofecoxib] | -0.184 ± 2.6 |
| CC(=O)c1cc([N+](=O)[O-])c(Sc2cccc(Cl)c2Cl)s1 | -6.1 |
| CN(C)CCC=C1c2ccccc2CCc2ccccc21 [Amitriptyline hydrochloride] | -2.91 |
| CN(C)CCC=C1c2ccccc2CCc2ccccc21 [Amitriptyline HCl] | -4.98 |
| Cc1ccnc2c1NC(=O)c1cccnc1N2C1CC1 [Nevirapine] | -1.1 |
| Cc1[nH]c(=O)c(C#N)cc1-c1ccncc1 [Milrinone] | -0.44 ± 0.72 |
| O=C(Nc1ccccc1)c1ccccc1O [Salicylanilide] | 3.03 |
